Results: patent US20050142106A1 (MIT, published 2005)

Target: T1, IL-2Rβ on YT-2C2 cells (human, UniProt P14784 27-551)
T1 construct: whole, on cells; YT-2C2 cells express about 20,000 IL-2Rβγ, so IL-2Rγ is also present; also called p75
T1 sequence (looked up): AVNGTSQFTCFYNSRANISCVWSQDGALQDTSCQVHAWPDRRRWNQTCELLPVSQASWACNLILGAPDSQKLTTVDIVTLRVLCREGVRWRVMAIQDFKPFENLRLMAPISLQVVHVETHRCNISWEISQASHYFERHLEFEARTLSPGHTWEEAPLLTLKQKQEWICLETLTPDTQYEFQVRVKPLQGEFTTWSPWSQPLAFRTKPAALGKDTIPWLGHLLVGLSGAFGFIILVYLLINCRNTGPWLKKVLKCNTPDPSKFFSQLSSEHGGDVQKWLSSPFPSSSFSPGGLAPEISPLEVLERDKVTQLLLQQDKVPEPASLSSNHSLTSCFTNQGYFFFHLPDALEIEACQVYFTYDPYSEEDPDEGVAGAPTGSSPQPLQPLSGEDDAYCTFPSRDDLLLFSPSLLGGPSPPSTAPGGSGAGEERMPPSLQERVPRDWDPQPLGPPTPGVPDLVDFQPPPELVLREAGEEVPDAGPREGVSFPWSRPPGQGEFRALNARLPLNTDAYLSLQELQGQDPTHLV
Experiment: flow cytometry on YT-2C2 cells, on ice, anti-FLAG detection, global fit

- Kd: 132 nM
B1: IL-2 mutant C1 (I128T) (ligand, not shown: small tags and cut ends)
chain: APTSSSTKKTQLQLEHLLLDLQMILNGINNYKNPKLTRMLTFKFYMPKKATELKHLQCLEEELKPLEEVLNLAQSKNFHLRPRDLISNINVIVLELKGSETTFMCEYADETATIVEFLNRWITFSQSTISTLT
notes: Soluble form
